Reference: article PMC12820563
This is one part of the list. The list includes weakly bound sequences.

These sequences were tested against T1, MBP-FoxP3dN (UniProt Q99JB6) (assay: PD-seq (MBP pull-down with sequencing)). Settings: 20 mM Tris-HCl pH 7.5, 100 mM NaCl, 1.5 mM MgCl2, 0.4 uM protein, 0.1 uM dsDNA library, 30 min, room temperature, amylose pull-down; high values mean tight binding; double strand, one strand shown.
T1 sequence: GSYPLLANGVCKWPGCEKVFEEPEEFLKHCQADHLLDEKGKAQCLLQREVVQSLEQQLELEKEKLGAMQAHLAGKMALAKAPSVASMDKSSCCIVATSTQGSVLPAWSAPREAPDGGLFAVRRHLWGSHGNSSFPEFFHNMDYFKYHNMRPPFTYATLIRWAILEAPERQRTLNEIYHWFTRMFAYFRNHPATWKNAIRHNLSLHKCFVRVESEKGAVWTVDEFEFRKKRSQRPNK

Row | Sequence | binding signal (RPM ratio (pull-down/input))
1 | GATGATTGTTCTCCCAGCTGATGAATTGAGCTACTCGAGTAAACAAATTTTCCTAATCTTTCTGTTCAAGCGCCATCTAC | 1.32
2 | GATGATTGTTCTCCCAGCTGATGAATTCCCTGCGTCGAGTAAACAAATTTTCCTAATCTTTCTGTTCAAGCGCCATCTAC | 0.401
3 | GATGATTGTTCTCCCAGCTGATGAATTGAGCTTCTCGAGTAAACAAATTTTCCTAATCTTTCTGTTCAAGCGCCATCTAC | 1.72
4 | GATGATTGTTCTCCCAGCTGATGAATTGGTTATTTCGAGTAAACAAATTTTCCTAATCTTTCTGTTCAAGCGCCATCTAC | 3.1
5 | GATGATTGTTCTCCCAGCTGATGAATTTATTTGGTCGAGTAAACAAATTTTCCTAATCTTTCTGTTCAAGCGCCATCTAC | 6.15
6 | GATGATTGTTCTCCCAGCTGATGAATTGACAGCATCGAGTAAACAAATTTTCCTAATCTTTCTGTTCAAGCGCCATCTAC | 1.05
7 | GATGATTGTTCTCCCAGCTGATGAATTTAGGCCGTCGAGTAAACAAATTTTCCTAATCTTTCTGTTCAAGCGCCATCTAC | 0.672
8 | GATGATTGTTCTCCCAGCTGATGAATTCGAGGAGTCGAGTAAACAAATTTTCCTAATCTTTCTGTTCAAGCGCCATCTAC | 0.252
9 | GATGATTGTTCTCCCAGCTGATGAATTATCAAGTTCGAGTAAACAAATTTTCCTAATCTTTCTGTTCAAGCGCCATCTAC | 0.288
10 | GATGATTGTTCTCCCAGCTGATGAATTACAAAATTCGAGTAAACAAATTTTCCTAATCTTTCTGTTCAAGCGCCATCTAC | 0.333
11 | GATGATTGTTCTCCCAGCTGATGAATTGTACAGGTCGAGTAAACAAATTTTCCTAATCTTTCTGTTCAAGCGCCATCTAC | 0.324
12 | GATGATTGTTCTCCCAGCTGATGAATTACGCTTTTCGAGTAAACAAATTTTCCTAATCTTTCTGTTCAAGCGCCATCTAC | 2.9
13 | GATGATTGTTCTCCCAGCTGATGAATTCTTCTGCTCGAGTAAACAAATTTTCCTAATCTTTCTGTTCAAGCGCCATCTAC | 0.236
14 | GATGATTGTTCTCCCAGCTGATGAATTTAAGCCCTCGAGTAAACAAATTTTCCTAATCTTTCTGTTCAAGCGCCATCTAC | 0.401
15 | GATGATTGTTCTCCCAGCTGATGAATTACTACTATCGAGTAAACAAATTTTCCTAATCTTTCTGTTCAAGCGCCATCTAC | 0.607
16 | GATGATTGTTCTCCCAGCTGATGAATTTCGTCCATCGAGTAAACAAATTTTCCTAATCTTTCTGTTCAAGCGCCATCTAC | 0.488
17 | GATGATTGTTCTCCCAGCTGATGAATTACCGGTCTCGAGTAAACAAATTTTCCTAATCTTTCTGTTCAAGCGCCATCTAC | 0.339
18 | GATGATTGTTCTCCCAGCTGATGAATTAACTTTTTCGAGTAAACAAATTTTCCTAATCTTTCTGTTCAAGCGCCATCTAC | 0.293
19 | GATGATTGTTCTCCCAGCTGATGAATTCCGCCCCTCGAGTAAACAAATTTTCCTAATCTTTCTGTTCAAGCGCCATCTAC | 2.18
20 | GATGATTGTTCTCCCAGCTGATGAATTCAGTCGCTCGAGTAAACAAATTTTCCTAATCTTTCTGTTCAAGCGCCATCTAC | 0.396
21 | GATGATTGTTCTCCCAGCTGATGAATTAAAATGCTCGAGTAAACAAATTTTCCTAATCTTTCTGTTCAAGCGCCATCTAC | 0.748

Row | Sequence | binding signal (RPM ratio (pull-down/input))
22 | GATGATTGTTCTCCCAGCTGATGAATTCCGCCAGTCGAGTAAACAAATTTTCCTAATCTTTCTGTTCAAGCGCCATCTAC | 2.79
23 | GATGATTGTTCTCCCAGCTGATGAATTGTAAAGCTCGAGTAAACAAATTTTCCTAATCTTTCTGTTCAAGCGCCATCTAC | 0.309
24 | GATGATTGTTCTCCCAGCTGATGAATTTGTAGGGTCGAGTAAACAAATTTTCCTAATCTTTCTGTTCAAGCGCCATCTAC | 4.93
25 | GATGATTGTTCTCCCAGCTGATGAATTAGTGCGTTCGAGTAAACAAATTTTCCTAATCTTTCTGTTCAAGCGCCATCTAC | 2.37
26 | GATGATTGTTCTCCCAGCTGATGAATTTTTCCTTTCGAGTAAACAAATTTTCCTAATCTTTCTGTTCAAGCGCCATCTAC | 0.189
27 | GATGATTGTTCTCCCAGCTGATGAATTCATGATATCGAGTAAACAAATTTTCCTAATCTTTCTGTTCAAGCGCCATCTAC | 0.552
28 | GATGATTGTTCTCCCAGCTGATGAATTTTCGCTCTCGAGTAAACAAATTTTCCTAATCTTTCTGTTCAAGCGCCATCTAC | 0.351
29 | GATGATTGTTCTCCCAGCTGATGAATTTAGTATGTCGAGTAAACAAATTTTCCTAATCTTTCTGTTCAAGCGCCATCTAC | 3.23
30 | GATGATTGTTCTCCCAGCTGATGAATTTAACGTGTCGAGTAAACAAATTTTCCTAATCTTTCTGTTCAAGCGCCATCTAC | 0.922
31 | GATGATTGTTCTCCCAGCTGATGAATTGTTGCGTTCGAGTAAACAAATTTTCCTAATCTTTCTGTTCAAGCGCCATCTAC | 3.78
32 | GATGATTGTTCTCCCAGCTGATGAATTCATGCAATCGAGTAAACAAATTTTCCTAATCTTTCTGTTCAAGCGCCATCTAC | 2.7
33 | GATGATTGTTCTCCCAGCTGATGAATTCGGGTGCTCGAGTAAACAAATTTTCCTAATCTTTCTGTTCAAGCGCCATCTAC | 0.494
34 | GATGATTGTTCTCCCAGCTGATGAATTCAGCGGCTCGAGTAAACAAATTTTCCTAATCTTTCTGTTCAAGCGCCATCTAC | 0.525
35 | GATGATTGTTCTCCCAGCTGATGAATTAATCGCTTCGAGTAAACAAATTTTCCTAATCTTTCTGTTCAAGCGCCATCTAC | 0.534
36 | GATGATTGTTCTCCCAGCTGATGAATTCTAAACCTCGAGTAAACAAATTTTCCTAATCTTTCTGTTCAAGCGCCATCTAC | 0.345
37 | GATGATTGTTCTCCCAGCTGATGAATTGCCTGTGTCGAGTAAACAAATTTTCCTAATCTTTCTGTTCAAGCGCCATCTAC | 0.881
38 | GATGATTGTTCTCCCAGCTGATGAATTAGCTCAGTCGAGTAAACAAATTTTCCTAATCTTTCTGTTCAAGCGCCATCTAC | 0.226
39 | GATGATTGTTCTCCCAGCTGATGAATTTAAACATTCGAGTAAACAAATTTTCCTAATCTTTCTGTTCAAGCGCCATCTAC | 0.704
40 | GATGATTGTTCTCCCAGCTGATGAATTATGGGCGTCGAGTAAACAAATTTTCCTAATCTTTCTGTTCAAGCGCCATCTAC | 0.683
41 | GATGATTGTTCTCCCAGCTGATGAATTAACATGCTCGAGTAAACAAATTTTCCTAATCTTTCTGTTCAAGCGCCATCTAC | 0.621
42 | GATGATTGTTCTCCCAGCTGATGAATTCTAGGCGTCGAGTAAACAAATTTTCCTAATCTTTCTGTTCAAGCGCCATCTAC | 0.457

Row | Sequence | binding signal (RPM ratio (pull-down/input))
43 | GATGATTGTTCTCCCAGCTGATGAATTGGTAGGATCGAGTAAACAAATTTTCCTAATCTTTCTGTTCAAGCGCCATCTAC | 0.367
44 | GATGATTGTTCTCCCAGCTGATGAATTGATGATCTCGAGTAAACAAATTTTCCTAATCTTTCTGTTCAAGCGCCATCTAC | 0.741
45 | GATGATTGTTCTCCCAGCTGATGAATTACGTATATCGAGTAAACAAATTTTCCTAATCTTTCTGTTCAAGCGCCATCTAC | 1.63
46 | GATGATTGTTCTCCCAGCTGATGAATTGGCTTTTTCGAGTAAACAAATTTTCCTAATCTTTCTGTTCAAGCGCCATCTAC | 1.5
47 | GATGATTGTTCTCCCAGCTGATGAATTGGACCGTTCGAGTAAACAAATTTTCCTAATCTTTCTGTTCAAGCGCCATCTAC | 0.275
48 | GATGATTGTTCTCCCAGCTGATGAATTTTCGGGGTCGAGTAAACAAATTTTCCTAATCTTTCTGTTCAAGCGCCATCTAC | 0.222
49 | GATGATTGTTCTCCCAGCTGATGAATTTTCAAACTCGAGTAAACAAATTTTCCTAATCTTTCTGTTCAAGCGCCATCTAC | 0.289
50 | GATGATTGTTCTCCCAGCTGATGAATTGAAGACATCGAGTAAACAAATTTTCCTAATCTTTCTGTTCAAGCGCCATCTAC | 0.353
51 | GATGATTGTTCTCCCAGCTGATGAATTCCAGGAGTCGAGTAAACAAATTTTCCTAATCTTTCTGTTCAAGCGCCATCTAC | 0.175
52 | GATGATTGTTCTCCCAGCTGATGAATTGTCAGCATCGAGTAAACAAATTTTCCTAATCTTTCTGTTCAAGCGCCATCTAC | 1.17
53 | GATGATTGTTCTCCCAGCTGATGAATTACATATGTCGAGTAAACAAATTTTCCTAATCTTTCTGTTCAAGCGCCATCTAC | 0.761
54 | GATGATTGTTCTCCCAGCTGATGAATTTGTAATTTCGAGTAAACAAATTTTCCTAATCTTTCTGTTCAAGCGCCATCTAC | 3.17
55 | GATGATTGTTCTCCCAGCTGATGAATTCCTCTCATCGAGTAAACAAATTTTCCTAATCTTTCTGTTCAAGCGCCATCTAC | 0.316
56 | GATGATTGTTCTCCCAGCTGATGAATTGCTTAAATCGAGTAAACAAATTTTCCTAATCTTTCTGTTCAAGCGCCATCTAC | 0.457
57 | GATGATTGTTCTCCCAGCTGATGAATTACCTAACTCGAGTAAACAAATTTTCCTAATCTTTCTGTTCAAGCGCCATCTAC | 0.325
58 | GATGATTGTTCTCCCAGCTGATGAATTCGCGGGCTCGAGTAAACAAATTTTCCTAATCTTTCTGTTCAAGCGCCATCTAC | 0.294
59 | GATGATTGTTCTCCCAGCTGATGAATTGTTTGCTTCGAGTAAACAAATTTTCCTAATCTTTCTGTTCAAGCGCCATCTAC | 6.19
60 | GATGATTGTTCTCCCAGCTGATGAATTGCTATCTTCGAGTAAACAAATTTTCCTAATCTTTCTGTTCAAGCGCCATCTAC | 0.906
61 | GATGATTGTTCTCCCAGCTGATGAATTAGTGCCGTCGAGTAAACAAATTTTCCTAATCTTTCTGTTCAAGCGCCATCTAC | 0.933
62 | GATGATTGTTCTCCCAGCTGATGAATTATAGTACTCGAGTAAACAAATTTTCCTAATCTTTCTGTTCAAGCGCCATCTAC | 0.657
63 | GATGATTGTTCTCCCAGCTGATGAATTTCGAGGGTCGAGTAAACAAATTTTCCTAATCTTTCTGTTCAAGCGCCATCTAC | 0.322
